Experimental data published in article PMC9574860, “Chemical Toolkit for PARK7: Potent, Selective, and High-Throughput” (Journal of Medicinal Chemistry, 2022).
Out of some 7,900 compounds screened, about 400 (5.1%) showed an effect of 50% or more. Some of the results follow.

Target: Parkinson's disease protein 7 (PARK7/DJ1) (human, UniProt Q99497)
Experiment: primary screen, percent inhibition; read as competition with a fluorescent probe by fluorescence polarization; higher = more effect of the substance
Conditions: 100 µM
Summary of the method: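 Fluorescence-polarization probe displacement (JYQ-107, 20 nM final, 2 h) after 2 h preincubation of PARK7 (0.2 μM final) with each fragment at 100 μM final. Read-out ex/em 480/520 nm; remaining activity derived from FP signal loss relative to reference controls.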

Parkinson's disease protein 7 (PARK7/DJ1), sequence (Q99497 whole entry, looked up): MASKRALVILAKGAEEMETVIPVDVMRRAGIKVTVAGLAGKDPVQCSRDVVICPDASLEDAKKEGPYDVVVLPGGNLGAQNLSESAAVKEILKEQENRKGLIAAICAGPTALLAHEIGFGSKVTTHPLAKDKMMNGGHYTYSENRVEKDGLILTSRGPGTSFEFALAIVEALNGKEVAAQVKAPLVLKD

SMILES | Inhibition %
CS(=O)(=O)OCC1CCCC(F)(F)C1 (stereo not drawn) | 10%
O=S(=O)(C=Cc1ccccc1)NCc1cccnc1 | 15.5%
O=S(=O)(C=Cc1ccccc1)Nc1ccc(F)c(F)c1 | 1.18%
CCOc1ccc(C)cc1S(=O)(=O)n1ccnc1C | 3.57%
Nc1nnc(SC2CCOC2=O)[nH]1 (stereo not drawn) | 1.57%
CS(=O)(=O)C(C#N)=Cc1ccccc1 | 5.36%
Cn1cc(CN2C[C@@H](C(F)(F)F)[C@H](C(N)=O)C2)cc1C#N | 10.7%
C=CC(=O)N1CCCc2ccc(S(C)(=O)=O)cc21 | 12.6%
CCN(CCO)C(=O)c1ccc2c(=O)[nH]c(S)nc2c1 | 15.7%
O=S(=O)(c1ccc(S)nc1)N1CCCC1 | 20.5%
C=CC(=O)NCC1=CCCOC1 | 2.71%
CC1CN(C(=O)C=Cc2ccnn2C)CC(C)N1.Cl (stereo not drawn) | 14.8%
N#Cc1ccccc1C=CC(=O)N1CCNC(=O)C1 | 2.94%
O=C(O)c1ccc(S(=O)(=O)F)cc1 | 49.1%
C=CC(=O)NCC1CC2(CCC2)CO1 (stereo not drawn) | 5.74%
ClCCCc1nc2ccccc2o1 | 16.4%
C=CC(=O)NCC(C)(O)c1ccc(C)o1 (stereo not drawn) | 10.5%
O=C(CN1C(=O)CCC1=O)Nc1ccccc1C(F)(F)F | 5.37%
Cn1c(=O)c(C(=O)CCl)c(N)n(Cc2ccccc2)c1=O | 18.2%
C=CC(=O)NCC1CCCSC1 (stereo not drawn) | 13.8%
Cc1cc(C)cc(NC(=O)CN2CCSC2=O)c1 | 5%
COc1cccc(CN(C)C(=O)CCl)c1 | 76.7%
C=CC(=O)NC1CCN(CC(F)F)C1 (stereo not drawn) | 6.23%
CN(C)C=CC(=O)c1ccc(F)cc1 | 4.05%
ClCC1Cc2ccccc2O1 (stereo not drawn) | 0.61%

SMILES | Inhibition %
N#Cc1ccc(NC2CCC(O)CC2)cn1 (stereo not drawn) | 5.17%
Cc1nc(-c2cccc(NC(=O)CCl)c2)cs1 | 20.6%
COc1cccc(C=C(C#N)C(=O)O)c1 | 3.76%
N#Cc1cc(N2CC(O)CC2c2cccc(F)c2)ccn1 (stereo not drawn) | 12.9%
N#CC(=Cc1cccnc1)c1ccc(C(F)(F)F)cn1 | 12.6%
CCc1nc(C(C#N)=Cc2cnn(C)c2)sc1C | 2.61%
CCc1nccn1S(=O)(=O)c1cc(C)c(C)cc1OC | -0.95%
CC1(C)COC(=O)C1NC(=O)CN1CCCCC1=O (stereo not drawn) | 0.524%
C=CC(=O)N1CCc2c(cnn2-c2ccccc2)C1 | 8.71%
CC(c1ccc(F)c(F)c1)N(C)C(=O)CCl (stereo not drawn) | 92.5%
CN(c1ccn(C)n1)S(=O)(=O)c1ccccc1S(=O)(=O)F | 97.9%
CSc1ccc(C(=O)CCl)cc1 | 89.6%
Cn1nnc2ccc(B3OC(C)(C)C(C)(C)O3)cc21 | 6.42%
O=C1OCCC1n1nnc(-c2ccc(F)cc2)n1 (stereo not drawn) | 4.53%
Cc1nnc(C(C)Cl)o1 (stereo not drawn) | 1.55%
C=CC(=O)NCC(=O)NC1(C)CCCCC1 | 13.6%
C=CC(=O)NC1CCCC1CNS(C)(=O)=O (stereo not drawn) | 5.32%
O=c1onc(-c2ccccn2)n1Cc1ccccc1F | 2.03%
C=CC(=O)N1CCSCC1c1ccc(C)o1 (stereo not drawn) | 7.34%
Cl.ClCCc1nc2ccccc2[nH]1 | 3.05%
N#Cc1ccc(N2CCOc3cccc(F)c3C2)cn1 | 0.655%
COc1ccccc1NC(=O)c1ccc(NC(=O)CCl)cc1 | 28.8%
C=CC(=O)N1CCN(C(=O)C2CC2)C1 | 2.16%
C=CC(=O)NC(C)c1cc(F)ccc1N1CCOCC1 (stereo not drawn) | 6.03%
N#Cc1ncn(CC(=O)NCCC2=CCCCC2)n1 | 6.29%

SMILES | Inhibition %
N#Cc1ccc(N[C@H]2c3ccccc3C[C@H]2O)cn1 | 37%
CC1CCCCC1NC(=O)CCl (stereo not drawn) | 3.04%
S=c1cn[nH]c2ccccc12 | 20.2%
CCNS(=O)(=O)c1ccc(B2OC(C)(C)C(C)(C)O2)c(C)c1 | 5.32%
N#Cc1ncn(CCC(=O)NCc2ccc(F)cc2)n1 | 7.22%
C=CC(=O)NCc1cccc(-c2cnco2)c1 | 5.28%
COCCCN1CCCN(C(=O)c2ccc(C#N)[nH]2)CC1 | 7.64%
C=CCc1ccccc1OCC1CO1 (stereo not drawn) | 8.19%
CCOc1ncccc1CNC(=O)c1c[nH]c(C#N)c1 | 6.1%
CCCn1c(=O)n(C)c(=O)c2c(S)nc(C(C)C)nc21 | 9.53%
C=CC(=O)Nc1ccc(OC)nc1 | 45.7%
Cc1cc(C=C(C#N)C(N)=O)ccc1F | 1.94%
CC1(C)OB(c2ccc(S(C)(=O)=O)cc2F)OC1(C)C | 5.23%
C=CC(=O)N1CCOC(c2cccc(C(F)(F)F)c2)C1 (stereo not drawn) | 22.3%
C=CC(=O)N1CC2CCC(C1)O2 | 11.7%
C=CC(=O)N1CC(Oc2ccccc2)C1 | 9.92%
CC1(C)OB(c2cc(F)ccc2C#N)OC1(C)C | -4.41%
C=CC(=O)N1CCCCCCCC1 | 7.56%
C=CC(=O)N1CC2(CCOCC2)C1c1ccccc1 (stereo not drawn) | 11.9%
COc1cccc(CCNC(=O)CCl)c1 | 25.9%
CCCc1cc(NC(=O)CCl)n(-c2ccccc2)n1 | 31.6%
C=CC(=O)N[C@H]1CCCC[C@H]1CC(F)(F)F | 8.64%
Cc1ccccc1CC(C)NC(=O)CCl (stereo not drawn) | 3.74%
O=C(Oc1ccc(F)cc1)N1CCCCC1 | 9.05%
CCc1ccc(C(=O)Cn2cnc(C#N)n2)cc1 | 4.24%

SMILES | Inhibition %
C=CC(=O)N[C@H]1COC[C@H]1OC (racemic) | 0.0503%
C=CC(=O)NCC1(c2cccc(F)c2)CC1 | 5.69%
C=CC(=O)N1CCOC(c2ccccc2)C1 (stereo not drawn) | 4.98%
Cc1nccn1CCCSc1cccnc1C#N | 1.92%
CC1(C)OB(c2cc(F)cc(Cn3ccnc3)c2)OC1(C)C | 4.68%
COC[C@@H]1C[C@H](OC)CN1Cc1cc(C#N)n(C)c1 | 6.92%
N#Cc1cccc(C(=O)NNC(=O)CCl)c1 | 20.2%
O=S(=O)(F)c1cccc(CO)c1 | 96.8%
CC1CC(N2CCCCC2Cn2cncn2)C(=O)O1 (stereo not drawn) | 1.57%
O=C(C=Cc1cscn1)N1CCOc2cc(F)ccc21 | 5.46%
C=CC(=O)Nc1ccc2nc(OC)sc2c1 | 6.55%
O=C(Nc1ncc(S(=O)(=O)F)s1)c1ccoc1C1CC1 | 3.65%
C=CC(=O)N1CC(NC(=O)NC)C1 | 20.1%
C=CC(=O)N1CC2CC3CC2C1C3OC (stereo not drawn) | 12.1%
Cc1ccc(NC(=O)CN2CCSC2=O)nc1 | 4.53%
Cc1cc(C)c(C#N)c(SCC2OCCO2)n1 | 4.24%
CN1CCN(CCCCl)C1=O | 3.97%
C=CC(=O)N1CCN(c2cncc3nc(C)nn23)CC1 | 6.75%
O=C1CC(c2ccccc2)=NO1 | 18.1%
CC1(C)OB(c2cnn(-c3ccccc3)c2F)OC1(C)C | 6.42%
O=S(=O)(C=Cc1ccccc1)Nc1ccccc1F | 12.9%
O=c1onc(-c2ccccc2)n1Cc1ccncc1 | 1.3%
CN1C=CC=CC1=C(C#N)C(=O)Nc1ccc(Cl)cc1 | 12.9%
CCCOCc1nc(-c2cccc(B(O)O)c2)no1 | 10.1%
C=CC(=O)NCc1cc(Cl)cc2c1OCC2 | -1.56%

SMILES | Inhibition %
Cn1ccc(NS(=O)(=O)C=Cc2ccccc2)n1 | 11.1%
CN1CCCN(C(=O)c2ccc(S(=O)(=O)F)cc2)c2ccccc21 | 17.9%
O=C(CCCl)N1CCOCC1 | 5.96%
Cc1noc(C2CCN(Cc3cc(C#N)n(C)c3)C2)n1 (stereo not drawn) | 6.79%
Cc1cccc(OCCn2cnc(C#N)n2)c1 | 3.5%
O=c1oc(-c2ccc(F)cc2)nn1CC1CCCCO1 (stereo not drawn) | 5.66%
Cc1nc(C#N)c(N2CCN(c3ccccc3)CC2)o1 | 8.89%
COc1ccc(C=C(C#N)C(=O)N2CCCC2)c(OC)c1 | 10.7%
C=CC(=O)NC1CC(=O)N(C2CC2C)C1 (stereo not drawn) | 6.12%
Cl.Cl.O=C1CCC(=O)N1CCN1CCNCC1 | 5.93%
OB(O)c1cc2cccc(Cl)c2s1 | 16.2%
O=C(NCC1CCOCO1)c1cccnc1S (stereo not drawn) | 6.16%
O=C(CCl)N1CCN(c2ccc([N+](=O)[O-])cc2)CC1 | 7.53%
Cc1c(C#N)nn(-c2ccccc2)c1N | 0.984%
Sc1nncc2ccccc12 | 8.48%
C=CC(=O)NC1(C)CN(C(C)=O)C1 | 10.6%
CC(C)Cc1ccc(C(C)NC(=O)CCl)cc1 (stereo not drawn) | 9.76%
O=C(Cn1nc(-c2ccccc2)oc1=O)N1CCSCC1 | 5.67%
Cl.O=C(CCl)Nc1ccncc1 | 14.4%
CSC1(C(=O)Nc2cccc(S(=O)(=O)F)c2)CC1 | 101%
N#Cc1ncn(CC(=O)c2cc(F)ccc2F)n1 | 9.54%
C=CC(=O)NCCc1cnn(C)c1 | 3.91%
N#Cc1ncn(CC(=O)C23CC4CC(CC(C4)C2)C3)n1 | 1.82%
